Reference: PubChem BioAssay (NCI)
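The compound was tested at five concentrations on cells cultured in 96-well plates, with a 48-hour exposure period. The concentration for 50% growth inhibition is given as GI50. TGI: total growth inhibition.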

Test system: NCI-H322M lung
Assay: inhibition of tumour cell growth, NCI panel, 48 h

## COc1cc2c3c(n(CCCN4CCOCC4)c(=O)c2cc1OC)-c1nc2c(cc1C3=O)OCO2
  GI50: 5.69 µM
  TGI: > 100 µM
